The source of these data is PMC6768651, “A ubiquitin-like domain controls protein kinase D dimerization and activation by trans-autophosphorylation” (The Journal of Biological Chemistry, 2019).

Residue numbers refer to the chain shown, from its start. Numbers in names are those of the source. No constants are given. Whether binding was seen depends on the method and setting. For some assays here: Binding seen in cells or lysates may run through a third protein. Some entries that bind do so weakly or less than the wild type. For some assays here: Sequences can lack the tags named with a protein.

Experiment [1] has as its target T1, Atto488-labeled DKF-1 ULD^R42C (C. elegans, UniProt Q9XUJ7 1-94, R42C, Atto488 (maleimide-conjugated) on cysteine 42).
T1 construct: C. elegans DKF-1, residues 1-94 (ubiquitin-like domain) with the surface-exposed arginine 42 mutated to cysteine; Labeling efficiency estimated at about 80%; also called Atto488-ULD^R42C; source: E. coli BL21*, purified in the same way as the WT counterpart, labelled with maleimide-Atto488; not shown: GST, N-terminal, cleaved
T1 sequence (looked up): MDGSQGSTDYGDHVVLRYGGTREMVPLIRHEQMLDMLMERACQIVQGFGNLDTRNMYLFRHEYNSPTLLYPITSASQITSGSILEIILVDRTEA
Nature of the experiment: fluorescence polarisation; fluorescence anisotropy; ULD or ULD^F59E (222 or 150 μM stock) titrated into 35–70 nM Atto488-ULD^R42C; 20 mM Tris pH 7.5, 150 mM KCl, 1% glycerol, 1 mM TCEP; 20 °C; single-site binding model; dimer to monomers; both purified.

Experiment [2] has as its target DKF-1 ULD F59E (C. elegans) (UniProt Q9XUJ7). Briefly: SEC-MALS; Superdex 200 10/300; 20 mM Tris pH 7.5, 150 mM KCl, 1 mM TCEP; 50 μl of 2.5 mg/ml protein injected; both purified. In general terms: SEC sorts molecules by how far they enter the pores of the column.
Experiment [3] concerns the target T2, EGFP-tagged PKD2 (human) (UniProt Q9BZL6).
T2 sequence: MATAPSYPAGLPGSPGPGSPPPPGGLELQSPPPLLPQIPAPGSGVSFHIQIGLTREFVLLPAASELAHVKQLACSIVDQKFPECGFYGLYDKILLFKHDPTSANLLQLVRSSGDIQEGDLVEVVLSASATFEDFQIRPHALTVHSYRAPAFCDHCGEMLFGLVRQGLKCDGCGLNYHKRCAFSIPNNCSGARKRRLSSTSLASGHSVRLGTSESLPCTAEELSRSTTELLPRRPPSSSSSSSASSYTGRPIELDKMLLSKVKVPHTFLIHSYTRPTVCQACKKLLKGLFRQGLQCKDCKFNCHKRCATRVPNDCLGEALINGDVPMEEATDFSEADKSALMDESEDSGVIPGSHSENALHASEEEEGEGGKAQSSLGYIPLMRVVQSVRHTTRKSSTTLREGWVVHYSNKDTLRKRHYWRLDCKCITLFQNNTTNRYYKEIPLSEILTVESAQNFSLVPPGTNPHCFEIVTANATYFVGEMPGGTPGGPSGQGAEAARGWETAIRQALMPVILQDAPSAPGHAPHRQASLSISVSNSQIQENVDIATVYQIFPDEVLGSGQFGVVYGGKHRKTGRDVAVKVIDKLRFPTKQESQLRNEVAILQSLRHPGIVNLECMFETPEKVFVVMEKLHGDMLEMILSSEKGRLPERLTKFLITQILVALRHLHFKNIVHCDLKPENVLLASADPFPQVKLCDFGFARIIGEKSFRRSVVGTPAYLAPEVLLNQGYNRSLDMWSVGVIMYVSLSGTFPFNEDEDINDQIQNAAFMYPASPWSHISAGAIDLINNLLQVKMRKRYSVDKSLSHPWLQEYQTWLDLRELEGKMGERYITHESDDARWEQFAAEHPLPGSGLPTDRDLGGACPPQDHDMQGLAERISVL
Nature of the experiment: co-IP; EGFP- and FLAG-tagged constructs co-expressed in HEK293T; GFP-trap (96-well plate or magnetic beads); lysis in 50 mM Tris pH 7.5, 150 mM KCl, 1 mM MgCl2, 0.5% CHAPS, 1 mM TCEP; anti-FLAG blot.

Experiment [4] deals with human PKD1 full-length protein (EGFP-tagged or FLAG-tagged copy) (human) (UniProt Q15139). The description is as above.
Experiment [5] concerns the target T3, EGFP-tagged PKD3 (human) (UniProt O94806).
T3 sequence: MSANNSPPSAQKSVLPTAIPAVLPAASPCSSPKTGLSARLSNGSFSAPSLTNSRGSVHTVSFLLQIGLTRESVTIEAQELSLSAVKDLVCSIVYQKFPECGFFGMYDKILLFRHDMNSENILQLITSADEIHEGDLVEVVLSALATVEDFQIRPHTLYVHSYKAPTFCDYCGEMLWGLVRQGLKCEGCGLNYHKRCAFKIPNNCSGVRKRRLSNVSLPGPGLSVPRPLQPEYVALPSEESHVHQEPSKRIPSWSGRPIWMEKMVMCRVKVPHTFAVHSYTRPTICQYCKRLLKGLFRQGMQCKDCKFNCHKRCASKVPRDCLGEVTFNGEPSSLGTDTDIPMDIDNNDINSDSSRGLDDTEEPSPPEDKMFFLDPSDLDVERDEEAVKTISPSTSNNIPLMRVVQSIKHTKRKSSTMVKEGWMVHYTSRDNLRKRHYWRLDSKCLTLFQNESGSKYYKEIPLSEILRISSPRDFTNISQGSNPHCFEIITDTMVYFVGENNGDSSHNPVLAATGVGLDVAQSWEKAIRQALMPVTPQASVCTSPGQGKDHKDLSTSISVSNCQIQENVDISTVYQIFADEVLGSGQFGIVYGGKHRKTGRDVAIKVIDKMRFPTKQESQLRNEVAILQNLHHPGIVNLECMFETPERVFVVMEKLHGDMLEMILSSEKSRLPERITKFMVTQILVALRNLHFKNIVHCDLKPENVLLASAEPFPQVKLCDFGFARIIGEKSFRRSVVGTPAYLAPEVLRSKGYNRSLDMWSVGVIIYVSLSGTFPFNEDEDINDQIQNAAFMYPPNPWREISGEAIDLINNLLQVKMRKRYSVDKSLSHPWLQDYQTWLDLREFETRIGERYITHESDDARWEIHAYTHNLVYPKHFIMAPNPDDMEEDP
Described as above.

The target in experiment [6] is T4, GST-tagged human PKD3 ULD–C1a (PKD3^55–206) (human) (UniProt O94806).
T4 sequence: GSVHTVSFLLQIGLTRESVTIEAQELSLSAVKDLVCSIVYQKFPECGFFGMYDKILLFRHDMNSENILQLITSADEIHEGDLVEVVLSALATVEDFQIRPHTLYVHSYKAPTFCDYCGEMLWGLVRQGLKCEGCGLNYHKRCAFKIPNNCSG
Briefly: pull-down; GST-PKD3 ULD–C1a co-expressed with His6-tagged PKD1 or PKD2 ULD–C1a in E. coli BL21*; GSH beads from cleared lysate; anti-GST and anti-His blots.

The target of experiment [7] is DKF-1 ULD–C1a F59E (C. elegans) (UniProt Q9XUJ7). Briefly: SEC-MALS; Superdex 200 10/300; 20 mM Tris pH 7.5, 150 mM KCl, 1 mM TCEP; 50 μl of 2.5 mg/ml protein injected; both purified.

B1: DKF-1 ULD F59E (domain or fragment, UniProt Q9XUJ7 1-94)
chain: T1 sequence (looked up) with C42R, F59E
Turning to B1, the binding entry in experiment [1] is reported as “no binding (tested: titrated from a 150 μM stock)”; in experiment [2] it was “no binding (tested: 50 μl of 2.5 mg/ml injected)”.

B2: human PKD1 full-length protein (EGFP-tagged or FLAG-tagged copy) (protein, UniProt Q15139 1-912)
chain: MSAPPVLRPPSPLLPVAAAAAAAAAALVPGSGPGPAPFLAPVAAPVGGISFHLQIGLSREPVLLLQDSSGDYSLAHVREMACSIVDQKFPECGFYGMYDKILLFRHDPTSENILQLVKAASDIQEGDLIEVVLSASATFEDFQIRPHALFVHSYRAPAFCDHCGEMLWGLVRQGLKCEGCGLNYHKRCAFKIPNNCSGVRRRRLSNVSLTGVSTIRTSSAELSTSAPDEPLLQKSPSESFIGREKRSNSQSYIGRPIHLDKILMSKVKVPHTFVIHSYTRPTVCQYCKKLLKGLFRQGLQCKDCRFNCHKRCAPKVPNNCLGEVTINGDLLSPGAESDVVMEEGSDDNDSERNSGLMDDMEEAMVQDAEMAMAECQNDSGEMQDPDPDHEDANRTISPSTSNNIPLMRVVQSVKHTKRKSSTVMKEGWMVHYTSKDTLRKRHYWRLDSKCITLFQNDTGSRYYKEIPLSEILSLEPVKTSALIPNGANPHCFEITTANVVYYVGENVVNPSSPSPNNSVLTSGVGADVARMWEIAIQHALMPVIPKGSSVGTGTNLHRDISVSISVSNCQIQENVDISTVYQIFPDEVLGSGQFGIVYGGKHRKTGRDVAIKIIDKLRFPTKQESQLRNEVAILQNLHHPGVVNLECMFETPERVFVVMEKLHGDMLEMILSSEKGRLPEHITKFLITQILVALRHLHFKNIVHCDLKPENVLLASADPFPQVKLCDFGFARIIGEKSFRRSVVGTPAYLAPEVLRNKGYNRSLDMWSVGVIIYVSLSGTFPFNEDEDIHDQIQNAAFMYPPNPWKEISHEAIDLINNLLQVKMRKRYSVDKTLSHPWLQDYQTWLDLRELECKIGERYITHESDDLRWEKYAGEQGLQYPTHLINPSASHSDTPETEETEMKALGERVSIL
In the case of B2, the binding result in experiment [3], in experiment [4] and in experiment [5] was “binds” each time.

B3: His-tagged human PKD1 ULD–C1a (PKD1^48–198) (domain or fragment, UniProt Q15139 48-198)
chain: GISFHLQIGLSREPVLLLQDSSGDYSLAHVREMACSIVDQKFPECGFYGMYDKILLFRHDPTSENILQLVKAASDIQEGDLIEVVLSASATFEDFQIRPHALFVHSYRAPAFCDHCGEMLWGLVRQGLKCEGCGLNYHKRCAFKIPNNCSG
For B3, the binding result in experiment [6] is recorded as “binds”.

B4: DKF-1 ULD–C1a F59E (domain or fragment, UniProt Q9XUJ7 1-151)
chain: MDGSQGSTDYGDHVVLRYGGTREMVPLIRHEQMLDMLMERARQIVQGFGNLDTRNMYLERHEYNSPTLLYPITSASQITSGSILEIILVDRTEAAVIPHVVEPESYMRPTFCDFCGEMLTGLMRQGVKCKNCNGNFHKRCSNAARNNCGAP
For B4, the binding entry in experiment [7] is on record as “no binding (tested: 50 μl of 2.5 mg/ml injected)”.

B5: His-tagged human PKD2 ULD–C1a (PKD2^42–190) (domain or fragment, UniProt Q9BZL6 42-190)
chain: GSGVSFHIQIGLTREFVLLPAASELAHVKQLACSIVDQKFPECGFYGLYDKILLFKHDPTSANLLQLVRSSGDIQEGDLVEVVLSASATFEDFQIRPHALTVHSYRAPAFCDHCGEMLFGLVRQGLKCDGCGLNYHKRCAFSIPNNCSG
Consider B5, for which the binding result in experiment [6] is given as “binds”.
